Reference: PubChem BioAssay AID256 (DTP/NCI, 2004)
Toxic doses and inconclusive results are not listed. Not every entry of the source has a single result; some have several. This is not the full list of results. An entry can have further records. Values given together differ, and nothing given here explains why; dose, time, organism, isomer or construct need not be as stated for each record.

System: CD2F1 mice, L1210 leukemia ip, survival T/C
Test: NCI In Vivo Anticancer Drug Screen. Data for tumor model L1210 Leukemia (intraperitoneal) in CD2F1 (CDF1) mice
Details: endpoint: mean survival time, schedule: Q01DX009 (ip), higher = longer survival
Procedure, shortened: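 Read-out first: treated-group measurement over vehicle-control measurement, expressed as a ratio. Animals bore a transplanted tumor line and were dosed with compound or vehicle.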

SMILES	T/C (dose: 8.0 mg/kg/injection, vehicle: saline)	T/C (dose: 75.0 mg/kg/injection, vehicle: saline with Tween-80)
S=P(N1CC1)(N1CC1)N1CC1	105 % of control, 118 % of control, 156 % of control	–
NC(=S)N/N=C/c1ccc(O)cn1	–	89 % of control, 166 % of control, 179 % of control
